#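 Five concentrations, 48 hours, 96-well plates. GI50 = concentration required for 50% inhibition of growth.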 For part of its entries the source gives two or more results. This list holds those alone. The source may hold further records. For some of these results: Records of one sample usually come from different ranges of test concentrations, which the source does not state; a value can be the end of its range. For some of these results: The values listed for one entry are repeated measurements in other runs, samples, wells, individuals or studies. Records carry a tag for their origin. A, B and so on number the origins entry by entry.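 TGI: concentration producing complete growth inhibition.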
# Tests used:
# Assay in all cases: DTP human tumour cell line panel, 48 h
# SR leukemia = system: SR leukemia
# M14 melanoma = system: M14 melanoma
# HCT-116 colon = system: HCT-116 colon
# CCRF-CEM leukemia = system: CCRF-CEM leukemia
# ACHN renal = system: ACHN renal
# MOLT-4 leukemia = system: MOLT-4 leukemia
# A549 NSCLC = system: A549 NSCLC
# OVCAR-8 ovarian = system: OVCAR-8 ovarian
# HL-60(TB) leukemia = system: HL-60(TB) leukemia
# NCI-H460 lung = system: NCI-H460 lung
# HOP-62 NSCLC = system: HOP-62 NSCLC
# MDA-MB-435 = system: MDA-MB-435
# T-47D breast = system: T-47D breast
# EKVX NSCLC = system: EKVX NSCLC
# MDA-N = system: MDA-N
# NCI-H522 lung = system: NCI-H522 lung
# U251 CNS = system: U251 CNS
# RPMI-8226 leukemia = system: RPMI-8226 leukemia
# COLO 205 colon = system: COLO 205 colon
# HCT-15 colon = system: HCT-15 colon
# CAKI-1 renal = system: CAKI-1 renal
# NCI-H23 lung = system: NCI-H23 lung
# SK-MEL-28 melanoma = system: SK-MEL-28 melanoma
# SK-OV-3 ovarian = system: SK-OV-3 ovarian
# SF-268 CNS = system: SF-268 CNS
# OVCAR-3 ovarian = system: OVCAR-3 ovarian
# IGROV1 ovarian = system: IGROV1 ovarian
# SF-539 CNS = system: SF-539 CNS
# SN12C renal = system: SN12C renal
# 786-0 renal = system: 786-0 renal
# MCF7 breast = system: MCF7 breast
# NCI/ADR-RES ovarian = system: NCI/ADR-RES ovarian
# SW-620 colon = system: SW-620 colon
# SNB-78 CNS = system: SNB-78 CNS
# MALME-3M melanoma = system: MALME-3M melanoma
# PC-3 prostate = system: PC-3 prostate
# OVCAR-4 ovarian = system: OVCAR-4 ovarian
# DLD-1 colon = system: DLD-1 colon
# SK-MEL-2 melanoma = system: SK-MEL-2 melanoma
# HOP-92 NSCLC = system: HOP-92 NSCLC
# SNB-75 CNS = system: SNB-75 CNS
structure (smiles),measurement,setting,value
CCc1cc2c(cc1N1CCC(N3CCOCC3)CC1)C(C)(C)c1[nH]c3cc(C#N)ccc3c1C2=O,TGI,SR leukemia,"216 nM [sample A, mean of 2 tests] and 352 nM [sample B, mean of 2 tests] and 2.61 µM [sample C, 1 test]"
CCCCCCCCCCCCCCCCOP(=O)(O)OP(=O)(O)OCC1OC(n2ccc(N)nc2=O)C(O)C1O (centres undefined),GI50,M14 melanoma,"> 100 µM [sample A, mean of 2 tests] and 5.33 µM [sample B, mean of 2 tests]"
same,GI50,HCT-116 colon,"> 100 µM [sample A, mean of 2 tests] and 8.89 µM [sample B, 1 test]"
same,GI50,CCRF-CEM leukemia,"> 100 µM [sample A, mean of 2 tests] and 967 nM [sample B, mean of 2 tests]"
same,GI50,ACHN renal,"> 100 µM [sample A, mean of 2 tests] and 9.31 µM [sample B, mean of 2 tests]"
same,GI50,MOLT-4 leukemia,"> 100 µM [sample A, mean of 2 tests] and 787 nM [sample B, mean of 2 tests]"
same,GI50,A549 NSCLC,"> 100 µM [sample A, mean of 2 tests] and 7.12 µM [sample B, mean of 2 tests]"
same,GI50,OVCAR-8 ovarian,"> 100 µM [sample A, mean of 2 tests] and 4.51 µM [sample B, mean of 2 tests]"
same,GI50,HL-60(TB) leukemia,"> 100 µM [sample A, mean of 2 tests] and 8.94 µM [sample B, mean of 2 tests]"
same,GI50,SR leukemia,"> 100 µM [sample A, 1 test] and 1.43 µM [sample B, mean of 2 tests]"
same,GI50,NCI-H460 lung,"> 100 µM [sample A, mean of 2 tests] and 5.71 µM [sample B, mean of 2 tests]"
same,GI50,HOP-62 NSCLC,"> 100 µM [sample A, mean of 2 tests] and 8.65 µM [sample B, mean of 2 tests]"
CC[C@@]1(O)C(=O)OCc2c1cc1n(c2=O)Cc2c-1nc1cc3c(cc1c2C)OCO3,TGI,MDA-MB-435,938 nM and 10.5 µM
same,TGI,T-47D breast,0.244 nM and 16.5 µM
same,GI50,EKVX NSCLC,376 nM and 36.5 nM
same,GI50,MDA-N,3.93 nM and 333 nM
same,TGI,NCI-H522 lung,382 nM and > 100 µM
same,TGI,OVCAR-8 ovarian,263 nM and 68.5 µM
same,TGI,HL-60(TB) leukemia,0.228 nM and > 100 µM
same,TGI,U251 CNS,4.69 nM and 109 nM
S=C(N/N=C(/c1ccccc1)c1ccccn1)N1CCCCCC1,TGI,CCRF-CEM leukemia,607 nM and > 20.1 µM
same,TGI,T-47D breast,26.6 nM and 1.92 µM
same,GI50,RPMI-8226 leukemia,< 1 nM and 30.2 nM
same,TGI,RPMI-8226 leukemia,8.8 nM and 19.8 µM
same,TGI,COLO 205 colon,15.2 nM and 3.77 µM
same,GI50,SR leukemia,< 1 nM and 28 nM
same,TGI,SR leukemia,9.23 nM and > 100 µM
Cc1cc2c(c3oc(C4(C)OC4C4OC4C)cc(=O)c13)C(=O)c1c(O)c(C3CC(C)(N(C)C)C(O)C(C)O3)cc(C3CC(N(C)C)C(O)C(C)O3)c1C2=O (centres undefined),TGI,HCT-116 colon,"5.62 nM, 16.6 nM, 79.8 nM"
same,TGI,HCT-15 colon,331 nM [mean of 2 tests] and 1.57 nM [mean of 3 tests]
same,TGI,CAKI-1 renal,0.159 nM and 119 nM
same,TGI,NCI-H23 lung,"0.0616 nM, 0.289 nM, 11.6 nM"
same,GI50,SK-MEL-28 melanoma,1.22 nM and 0.121 nM
same,TGI,T-47D breast,"0.959 nM, 3.15 nM, 399 nM"
same,TGI,MOLT-4 leukemia,8.11 nM and 124 nM
same,TGI,SK-OV-3 ovarian,28.6 nM and 1.58 nM
same,TGI,SF-268 CNS,"0.0919, 1.2, 121, 30 nM"
same,TGI,OVCAR-3 ovarian,0.575 nM and 86.8 nM
same,GI50,NCI-H522 lung,3.68 nM [mean of 2 tests] and 0.166 nM [mean of 3 tests]
same,TGI,NCI-H522 lung,"7.97 nM, 0.75 nM, 8.18 nM"
same,GI50,RPMI-8226 leukemia,0.0573 nM and 3.04 nM
same,TGI,OVCAR-8 ovarian,"10.4 nM, 0.968 nM, 2.51 nM"
same,TGI,IGROV1 ovarian,"4.56 nM, 6.52 nM, 86.5 nM"
same,TGI,SF-539 CNS,0.172 nM and 3.03 nM
same,TGI,SN12C renal,0.339 nM and 6.74 nM
same,TGI,786-0 renal,10.1 nM and 0.472 nM
same,TGI,MCF7 breast,"0.0732 nM, 10.9 nM, 5.21 nM"
same,TGI,NCI/ADR-RES ovarian,"0.461 nM, 0.296 nM, 5.46 nM"
same,TGI,SW-620 colon,"0.164 nM, 17.3 nM, 3.66 nM"
same,TGI,SNB-78 CNS,29 nM and 462 nM
same,GI50,MALME-3M melanoma,2.84 nM [1 test] and 0.136 nM [mean of 2 tests]
same,TGI,MALME-3M melanoma,24.9 nM [1 test] and 0.557 nM [mean of 2 tests]
same,TGI,HL-60(TB) leukemia,"47.2, 5.62, 1.28, 4.41 nM"
same,TGI,COLO 205 colon,"7.43 nM, 16.6 nM [1 test] and 0.544 nM [mean of 2 tests]"
same,TGI,PC-3 prostate,"0.177 nM, 1.41 nM, > 10 µM"
same,TGI,U251 CNS,"0.0677 nM, 0.47 nM, 5.51 nM"
same,GI50,OVCAR-4 ovarian,4.5 nM [mean of 2 tests] and 0.213 nM [mean of 3 tests]
same,TGI,OVCAR-4 ovarian,24.3 nM [mean of 2 tests] and 1.52 nM [mean of 3 tests]
same,TGI,DLD-1 colon,22.5 nM and 583 nM
same,TGI,SK-MEL-2 melanoma,"> 10 µM [1 test] and 0.744 nM, 0.257 nM [mean of 3 tests]"
same,TGI,HOP-92 NSCLC,"4.64 nM, 0.827 nM, > 10 µM"
same,TGI,NCI-H460 lung,1.65 µM and 2.72 nM
same,TGI,HOP-62 NSCLC,"0.141 nM, 0.496 nM, 12.7 nM"
same,GI50,SNB-75 CNS,3.66 nM [1 test] and 0.135 nM [mean of 2 tests]
same,TGI,SNB-75 CNS,8.36 nM [1 test] and 0.403 nM [mean of 2 tests]

# Source: PubChem BioAssay (NCI)
